The values that follow come from PMC5414985.

The chains behind the UniProt entries cited, without tags or fusion partners. Where a name states a change or a piece, a line headed by the entry shows the natural chain unless it says otherwise. Residues count along the entry.
UniProt Q9Z2D8: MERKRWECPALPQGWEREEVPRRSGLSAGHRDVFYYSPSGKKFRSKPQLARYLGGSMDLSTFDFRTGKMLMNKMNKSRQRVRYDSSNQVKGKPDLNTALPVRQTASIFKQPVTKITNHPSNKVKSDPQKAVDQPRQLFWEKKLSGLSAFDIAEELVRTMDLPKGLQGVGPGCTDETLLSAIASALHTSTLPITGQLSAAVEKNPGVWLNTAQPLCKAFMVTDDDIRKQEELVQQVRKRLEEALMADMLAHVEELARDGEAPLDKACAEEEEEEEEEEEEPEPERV
GST-Mbd3 ΔN92: residues 93-285 of Q9Z2D8
UniProt Q6P2K6: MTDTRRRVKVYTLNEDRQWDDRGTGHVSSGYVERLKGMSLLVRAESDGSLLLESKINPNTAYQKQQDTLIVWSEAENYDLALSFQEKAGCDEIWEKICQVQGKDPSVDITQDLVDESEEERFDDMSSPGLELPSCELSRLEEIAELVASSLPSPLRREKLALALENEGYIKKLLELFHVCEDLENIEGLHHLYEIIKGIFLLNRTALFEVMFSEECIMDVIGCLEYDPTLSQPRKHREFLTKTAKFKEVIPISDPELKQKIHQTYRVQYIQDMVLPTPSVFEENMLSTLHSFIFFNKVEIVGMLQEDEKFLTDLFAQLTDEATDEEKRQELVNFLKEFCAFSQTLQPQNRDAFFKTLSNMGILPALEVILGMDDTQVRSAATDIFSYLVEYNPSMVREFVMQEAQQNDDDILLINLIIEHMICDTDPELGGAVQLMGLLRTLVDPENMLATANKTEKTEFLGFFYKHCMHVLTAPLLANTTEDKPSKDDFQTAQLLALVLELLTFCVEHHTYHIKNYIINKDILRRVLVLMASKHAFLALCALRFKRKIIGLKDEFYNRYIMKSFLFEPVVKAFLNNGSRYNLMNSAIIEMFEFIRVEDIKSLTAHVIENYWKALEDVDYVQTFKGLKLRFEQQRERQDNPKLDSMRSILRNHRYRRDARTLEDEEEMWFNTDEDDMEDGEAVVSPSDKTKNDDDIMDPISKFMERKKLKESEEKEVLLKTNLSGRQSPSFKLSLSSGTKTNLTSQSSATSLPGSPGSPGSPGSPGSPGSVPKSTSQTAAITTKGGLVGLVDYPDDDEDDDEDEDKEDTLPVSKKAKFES
UniProt Q922R5: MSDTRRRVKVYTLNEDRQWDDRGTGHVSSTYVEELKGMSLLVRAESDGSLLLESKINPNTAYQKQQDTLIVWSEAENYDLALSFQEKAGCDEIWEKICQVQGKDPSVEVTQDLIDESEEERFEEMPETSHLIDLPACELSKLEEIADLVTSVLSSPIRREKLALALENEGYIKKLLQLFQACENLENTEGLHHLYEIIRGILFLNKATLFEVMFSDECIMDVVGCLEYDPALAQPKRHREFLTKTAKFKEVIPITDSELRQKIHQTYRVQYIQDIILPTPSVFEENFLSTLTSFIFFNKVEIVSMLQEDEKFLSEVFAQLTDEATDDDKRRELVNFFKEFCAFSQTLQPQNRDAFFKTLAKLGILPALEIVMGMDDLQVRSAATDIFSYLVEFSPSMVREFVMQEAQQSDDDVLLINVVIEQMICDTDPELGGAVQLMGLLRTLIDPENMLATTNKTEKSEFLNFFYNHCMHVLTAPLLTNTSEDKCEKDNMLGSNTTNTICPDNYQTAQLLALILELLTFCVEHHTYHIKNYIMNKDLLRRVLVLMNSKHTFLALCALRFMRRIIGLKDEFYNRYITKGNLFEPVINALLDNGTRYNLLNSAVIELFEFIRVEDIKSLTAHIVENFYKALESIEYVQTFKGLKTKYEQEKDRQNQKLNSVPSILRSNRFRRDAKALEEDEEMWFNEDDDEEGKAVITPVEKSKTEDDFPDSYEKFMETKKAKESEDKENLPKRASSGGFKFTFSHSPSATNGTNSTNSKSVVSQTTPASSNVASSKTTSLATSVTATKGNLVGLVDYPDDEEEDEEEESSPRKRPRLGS
UniProt O09106: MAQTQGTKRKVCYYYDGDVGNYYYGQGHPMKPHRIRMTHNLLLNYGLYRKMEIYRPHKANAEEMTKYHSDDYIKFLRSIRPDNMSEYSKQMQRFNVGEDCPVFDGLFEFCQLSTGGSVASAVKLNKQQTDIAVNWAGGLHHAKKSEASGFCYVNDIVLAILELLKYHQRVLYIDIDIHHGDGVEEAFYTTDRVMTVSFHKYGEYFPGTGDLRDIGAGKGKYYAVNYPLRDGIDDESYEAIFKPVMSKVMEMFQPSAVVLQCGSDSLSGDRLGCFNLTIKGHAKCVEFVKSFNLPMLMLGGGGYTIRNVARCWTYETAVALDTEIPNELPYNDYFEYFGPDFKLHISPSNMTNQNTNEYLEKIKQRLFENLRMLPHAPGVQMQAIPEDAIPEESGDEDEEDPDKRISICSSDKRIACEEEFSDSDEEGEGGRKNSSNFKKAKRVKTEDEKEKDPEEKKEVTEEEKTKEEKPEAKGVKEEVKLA
UniProt Q8K4B0: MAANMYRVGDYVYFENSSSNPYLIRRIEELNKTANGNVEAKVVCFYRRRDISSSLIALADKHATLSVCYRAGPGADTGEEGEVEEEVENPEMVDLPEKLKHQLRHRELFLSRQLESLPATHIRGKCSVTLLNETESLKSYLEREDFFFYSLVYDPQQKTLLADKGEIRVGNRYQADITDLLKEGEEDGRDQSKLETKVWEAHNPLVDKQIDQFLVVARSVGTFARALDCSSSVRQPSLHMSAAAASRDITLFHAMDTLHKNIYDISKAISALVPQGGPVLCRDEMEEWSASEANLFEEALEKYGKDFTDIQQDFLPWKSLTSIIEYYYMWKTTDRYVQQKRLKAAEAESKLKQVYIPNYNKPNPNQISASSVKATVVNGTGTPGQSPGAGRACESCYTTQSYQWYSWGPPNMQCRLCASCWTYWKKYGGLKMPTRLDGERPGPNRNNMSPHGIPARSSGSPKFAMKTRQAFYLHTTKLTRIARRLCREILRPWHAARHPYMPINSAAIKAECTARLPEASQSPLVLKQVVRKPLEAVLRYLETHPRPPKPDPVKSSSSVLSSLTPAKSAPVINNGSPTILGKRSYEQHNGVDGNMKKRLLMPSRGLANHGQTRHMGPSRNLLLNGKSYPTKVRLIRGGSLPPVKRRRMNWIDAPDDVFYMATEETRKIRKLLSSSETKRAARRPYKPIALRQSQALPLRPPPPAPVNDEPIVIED

These are yes or no findings as the source states them, for the method shown. In cells and extracts the contact can be indirect. Some binding calls cover weakened binding; strength is not graded here.

For assay [1], the target named is HA-tagged Mbd3, full length (mouse) (UniProt Q9Z2D8). The experiment in a line: co-IP; HEK293T cells transfected with tagged Smek and Mbd3 constructs; IP buffer with 130 mM NaCl, 0.5% Triton X-100, 0.5% NP-40, pH 7.4; antibody overnight at 4°C, Protein A/G beads, immunoblot. A general note: In western blotting, separated proteins are transferred to a membrane and probed.

The next assay deals with GST-Mbd3 ΔN92 (mouse) (UniProt Q9Z2D8). The experiment in a line: pull-down; GST or GST-Mbd3 proteins on glutathione magnetic beads incubated with lysate of HEK293T cells transfected with Flag-tagged Smek2; immunoblot with Smek2 and Mbd3 antibodies; only the target purified.
The target of another assay is GST-Mbd3 (mouse) (UniProt Q9Z2D8). The description is as above.
The target of assay [2] is endogenous Mbd3 (mouse (endogenous in NPCs)) (UniProt Q9Z2D8). The experiment in a line: co-IP; endogenous proteins in NPC lysates (undifferentiated NPCs in Fig 2E); anti-Mbd3, anti-Smek2 or control IgG; immunoblot.
The target is the same in assay [3]. Put plainly: condition: only NPCs under differentiation conditions; co-IP; endogenous proteins in lysates of differentiated NPCs; anti-Mbd3, anti-Smek2 or control IgG; immunoblot.

With “Flag-tagged Smek1, full length (from UniProt Q6P2K6 1-820)”, in assay [1], the binding result is given as “binds”. Regarding “Flag-tagged Smek2 (from UniProt Q922R5 1-820)”, the results for the binding result (in assay [1]; with GST-Mbd3 ΔN92 (mouse); in the assay with GST-Mbd3 (mouse)) were “binds”, “no binding” and “binds”, respectively. For HDAC1 (from UniProt O09106 1-482), in assay [2], the binding entry is recorded as “binds”. For MTA1 (from UniProt Q8K4B0 1-715), the binding result in assay [2] is listed as “binds”. In the case of “endogenous Smek2 (from UniProt Q922R5 1-820)”, the binding entry is recorded as “no binding” in assay [3] and “binds” in assay [2].
